Assay results taken from article PMC5103362 (Autophagy, 2016).
Results are given in words; binding and its absence hold for the method and conditions named. For part of these data: Binding seen in cells or lysates may run through a third protein. Some binding calls cover weakened binding; strength is not graded here. For part of these data: Where a sequence is shown, tags or fusion partners need not be part of it. Values belong to the molecule of their own block, whether it stands above or below them.

The chains behind the UniProt entries cited, without tags or fusion partners. Where a name states a change or a piece, a line headed by the entry shows the natural chain unless it says otherwise.
UniProt P22219: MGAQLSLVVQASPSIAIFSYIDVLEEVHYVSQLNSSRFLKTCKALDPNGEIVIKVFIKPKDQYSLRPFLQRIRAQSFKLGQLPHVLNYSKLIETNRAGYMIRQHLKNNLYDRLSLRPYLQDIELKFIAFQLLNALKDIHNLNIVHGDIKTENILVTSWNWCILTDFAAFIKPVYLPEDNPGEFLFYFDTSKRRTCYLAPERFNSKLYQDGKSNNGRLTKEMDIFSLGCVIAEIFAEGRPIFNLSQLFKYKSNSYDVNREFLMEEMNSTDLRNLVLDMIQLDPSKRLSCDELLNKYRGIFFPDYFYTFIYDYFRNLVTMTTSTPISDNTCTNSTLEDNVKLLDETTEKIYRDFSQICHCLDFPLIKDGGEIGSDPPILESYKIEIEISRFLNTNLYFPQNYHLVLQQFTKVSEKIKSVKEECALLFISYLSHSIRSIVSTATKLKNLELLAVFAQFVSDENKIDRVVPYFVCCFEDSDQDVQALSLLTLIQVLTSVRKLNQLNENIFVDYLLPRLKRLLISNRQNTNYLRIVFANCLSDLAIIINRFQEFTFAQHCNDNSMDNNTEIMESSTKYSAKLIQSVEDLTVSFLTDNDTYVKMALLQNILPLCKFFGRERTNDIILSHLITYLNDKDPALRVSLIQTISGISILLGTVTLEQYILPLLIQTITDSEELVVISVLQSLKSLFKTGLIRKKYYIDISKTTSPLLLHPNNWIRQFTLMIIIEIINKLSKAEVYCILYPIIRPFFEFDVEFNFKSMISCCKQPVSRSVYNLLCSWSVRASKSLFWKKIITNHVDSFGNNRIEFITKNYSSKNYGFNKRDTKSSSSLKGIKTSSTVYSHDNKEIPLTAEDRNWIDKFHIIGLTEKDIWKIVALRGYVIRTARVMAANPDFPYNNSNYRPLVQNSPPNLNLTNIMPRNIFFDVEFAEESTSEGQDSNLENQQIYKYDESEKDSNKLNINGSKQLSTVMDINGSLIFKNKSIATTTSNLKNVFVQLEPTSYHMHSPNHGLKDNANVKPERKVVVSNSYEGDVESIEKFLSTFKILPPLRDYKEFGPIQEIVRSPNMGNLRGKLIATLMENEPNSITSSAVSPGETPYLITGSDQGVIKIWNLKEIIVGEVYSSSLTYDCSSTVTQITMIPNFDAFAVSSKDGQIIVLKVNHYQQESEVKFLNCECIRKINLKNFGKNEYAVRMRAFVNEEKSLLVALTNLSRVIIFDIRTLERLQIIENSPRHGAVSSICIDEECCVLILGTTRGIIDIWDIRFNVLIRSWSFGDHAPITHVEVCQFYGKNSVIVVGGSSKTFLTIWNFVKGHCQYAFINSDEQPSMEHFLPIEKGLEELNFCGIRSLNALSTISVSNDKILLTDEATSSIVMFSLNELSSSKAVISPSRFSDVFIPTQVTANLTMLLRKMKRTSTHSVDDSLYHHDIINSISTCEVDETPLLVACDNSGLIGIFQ

Assays:
[1] = molecular target: T1, GST-Atg38 (87 to 226) (S. cerevisiae) (UniProt Q05789); assay: condition: 1.78 μM complex I with 10-fold excess of GST fusion; pull-down; GST affinity isolation: GST fusions of Atg38 on glutathione Sepharose, purified yeast complex I at 1.78 µM with 10-fold excess of GST fusion; 50 mM Tris pH 8.8, 150 mM NaCl, 1 mM TCEP, on ice 90 min; stained gel; both purified
T1 sequence: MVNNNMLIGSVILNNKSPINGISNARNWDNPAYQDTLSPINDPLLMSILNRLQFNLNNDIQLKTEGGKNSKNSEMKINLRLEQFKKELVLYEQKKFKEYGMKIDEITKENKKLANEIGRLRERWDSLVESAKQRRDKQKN

[2] = molecular target: His6-NRBF2-MIT domain (residues 1 to 89) (human) (UniProt Q96F24); assay: SEC-MALS; NRBF2 MIT domain alone; 20 mM Tris pH 8.0, 200 mM NaCl, 0.5 mM TCEP; both purified
[3] = molecular target: Atg38 capΔ+stalkΔ (123 to 209 deleted), recombinant (S. cerevisiae) (UniProt Q05789); assay: SEC-MALS; Atg38 full-length, MIT domain and deletion variants alone on S75 10/30; 20 mM Tris pH 7.9, 300 mM NaCl, 1 mM TCEP; both purified
[4] = molecular target: Atg38 MIT domain (residues 1 to 78) (S. cerevisiae) (UniProt Q05789); assay: as above
[5] = molecular target: Atg38 C terminusΔ (residues 123 to 226 deleted), recombinant (S. cerevisiae) (UniProt Q05789); assay: as above
[6] = molecular target: T2, Atg38 C terminusΔ (residues 123 to 226 deleted), 3xFLAG (S. cerevisiae) (UniProt Q05789); assay: co-IP; yeast lysates after 4 h in SD(-N); anti-Flag M2 agarose IP of Atg38-3xFLAG variants, Atg38-ZZ detected with PAP; lysis buffer with 200 mM NaCl, 1% Triton X-100
T2 sequence: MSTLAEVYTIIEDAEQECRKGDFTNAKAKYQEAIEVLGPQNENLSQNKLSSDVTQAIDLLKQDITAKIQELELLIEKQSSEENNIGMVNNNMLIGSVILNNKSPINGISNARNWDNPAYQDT

[7] = molecular target: T3, Atg38 capΔ (123 to 181 deleted), 3xFLAG (S. cerevisiae) (UniProt Q05789); assay: as above
T3 sequence: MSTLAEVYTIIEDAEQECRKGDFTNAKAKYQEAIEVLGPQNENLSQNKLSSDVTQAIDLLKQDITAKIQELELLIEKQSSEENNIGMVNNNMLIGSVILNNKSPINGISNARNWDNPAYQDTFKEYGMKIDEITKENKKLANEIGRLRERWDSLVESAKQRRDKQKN

[8] = molecular target: T4, Atg38 capΔ+stalkΔ (123 to 209 deleted), 3xFLAG (S. cerevisiae) (UniProt Q05789); assay: as above
T4 sequence: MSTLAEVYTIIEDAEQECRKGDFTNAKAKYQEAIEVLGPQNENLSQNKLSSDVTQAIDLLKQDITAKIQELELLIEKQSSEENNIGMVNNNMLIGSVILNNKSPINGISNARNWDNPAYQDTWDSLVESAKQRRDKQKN

[9] = molecular target: T5, Atg38 full length, 3xFLAG (S. cerevisiae) (UniProt Q05789); assay: as above
T5 sequence: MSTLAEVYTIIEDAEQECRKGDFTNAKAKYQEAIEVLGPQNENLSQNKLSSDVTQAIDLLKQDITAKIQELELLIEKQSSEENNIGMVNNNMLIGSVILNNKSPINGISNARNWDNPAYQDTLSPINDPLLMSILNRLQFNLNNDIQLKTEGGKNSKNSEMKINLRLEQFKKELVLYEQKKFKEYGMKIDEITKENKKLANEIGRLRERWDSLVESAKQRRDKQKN

[10] = molecular target: T6, Atg38 stalkΔ (182 to 209 deleted), 3xFLAG (S. cerevisiae) (UniProt Q05789); assay: as above
T6 sequence: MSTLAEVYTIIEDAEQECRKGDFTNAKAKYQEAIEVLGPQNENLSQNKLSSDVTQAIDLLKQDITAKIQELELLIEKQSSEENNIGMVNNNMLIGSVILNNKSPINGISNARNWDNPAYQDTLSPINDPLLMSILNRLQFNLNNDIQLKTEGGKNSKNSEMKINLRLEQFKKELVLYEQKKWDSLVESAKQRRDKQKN

[11] = molecular target: T7, Atg38 tailΔ (209 to 226 deleted), 3xFLAG (S. cerevisiae) (UniProt Q05789); assay: as above
T7 sequence: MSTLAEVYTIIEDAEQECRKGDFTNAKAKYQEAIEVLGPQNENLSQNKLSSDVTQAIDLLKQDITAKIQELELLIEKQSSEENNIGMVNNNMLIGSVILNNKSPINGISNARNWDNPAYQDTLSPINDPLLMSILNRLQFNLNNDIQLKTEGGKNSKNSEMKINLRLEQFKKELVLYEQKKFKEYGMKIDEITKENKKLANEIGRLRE

[12] = molecular target: Atg38 stalkΔ+tailΔ (182 to 226 deleted), recombinant (S. cerevisiae) (UniProt Q05789); assay: SEC-MALS; Atg38 full-length, MIT domain and deletion variants alone on S75 10/30; 20 mM Tris pH 7.9, 300 mM NaCl, 1 mM TCEP; both purified

Molecule: yeast complex I (Vps15-Vps34-Vps30-Atg14 heterotetramer) (from UniProt P22219 1-1454; P22543 1-875; Q02948 1-557; P38270 1-344)
binding [1]: no binding

B1: Atg38 capΔ+stalkΔ (123 to 209 deleted), recombinant (protein, UniProt Q05789)
chain: MSTLAEVYTIIEDAEQECRKGDFTNAKAKYQEAIEVLGPQNENLSQNKLSSDVTQAIDLLKQDITAKIQELELLIEKQSSEENNIGMVNNNMLIGSVILNNKSPINGISNARNWDNPAYQDTWDSLVESAKQRRDKQKN
binding [3]: no binding

B3: Atg38 C terminusΔ (residues 123 to 226 deleted), recombinant (domain or fragment, UniProt Q05789 1-122)
chain: MSTLAEVYTIIEDAEQECRKGDFTNAKAKYQEAIEVLGPQNENLSQNKLSSDVTQAIDLLKQDITAKIQELELLIEKQSSEENNIGMVNNNMLIGSVILNNKSPINGISNARNWDNPAYQDT
binding [5]: no binding

Second part, the molecule after the results:

binding [2]: no binding
Molecule: His6-NRBF2-MIT domain (residues 1 to 89) (from UniProt Q96F24 1-89) (domain or fragment)

binding [4]: no binding
B2: GST-Atg38 (1 to 78) (domain or fragment, S. cerevisiae, UniProt Q05789 1-78, looked up)
chain: MSTLAEVYTIIEDAEQECRKGDFTNAKAKYQEAIEVLGPQNENLSQNKLSSDVTQAIDLLKQDITAKIQELELLIEKQ
notes: Atg38, S. cerevisiae, MIT domain, residues 1 to 78; also called MIT domain alone; source: E. coli, purified (Glutathione Sepharose, eluted with glutathione); not shown: GST, N-terminal, kept

binding [6]: no binding | binding [7]: binds | binding [8]: no binding | binding [9]: binds | binding [10]: binds | binding [11]: binds
B4: Atg38, full-length (natural protein, S. cerevisiae, UniProt Q05789 1-226, looked up)
chain: MSTLAEVYTIIEDAEQECRKGDFTNAKAKYQEAIEVLGPQNENLSQNKLSSDVTQAIDLLKQDITAKIQELELLIEKQSSEENNIGMVNNNMLIGSVILNNKSPINGISNARNWDNPAYQDTLSPINDPLLMSILNRLQFNLNNDIQLKTEGGKNSKNSEMKINLRLEQFKKELVLYEQKKFKEYGMKIDEITKENKKLANEIGRLRERWDSLVESAKQRRDKQKN
notes: also called purified Atg38; free Atg38; source: E. coli, purified (Glutathione Sepharose, TEV, HiTrap Q, S75); not shown: GST, N-terminal, cleaved

binding [12]: no binding
B5: Atg38 stalkΔ+tailΔ (182 to 226 deleted), recombinant (domain or fragment, UniProt Q05789 1-181)
chain: MSTLAEVYTIIEDAEQECRKGDFTNAKAKYQEAIEVLGPQNENLSQNKLSSDVTQAIDLLKQDITAKIQELELLIEKQSSEENNIGMVNNNMLIGSVILNNKSPINGISNARNWDNPAYQDTLSPINDPLLMSILNRLQFNLNNDIQLKTEGGKNSKNSEMKINLRLEQFKKELVLYEQKK
